Measured values from the supplement of paper PMC3724861.
The other results are listed elsewhere or left out.

Tested on: T1, Caupolican (Caup) homeodomain DNA-binding domain
T1 sequence: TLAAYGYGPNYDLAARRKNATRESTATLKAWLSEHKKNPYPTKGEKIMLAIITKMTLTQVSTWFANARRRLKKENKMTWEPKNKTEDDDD
Test: PBM E-score (8-mer, recovered from the published 9-mer minima) (E-score (dimensionless, -0.5 to 0.5)); Drosophila protein; higher = stronger relative binding preference, active = 0.31 or more
How it was run: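 An enrichment score, with higher meaning stronger, expresses relative binding preference for each short DNA word. The protein used was Caup's homeodomain DNA-binding domain (residues 214-303), produced by in vitro transcription and translation and tested at 100 nM on custom-designed protein binding microarrays. The 8-mer values were recovered from published 9-mer scores, each equal to the lower of its two constituent 8-mer scores.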

| Sequence | PBM E-score |
| --- | --- |
| AAAGAAGT | inactive: 0.0392 |
| AGATGGAC | inactive: 0.0396 |
| GTCGATAA | inactive: 0.0563 |
| ATTCGGTA | ≥ 0.116 |
| ACGCACGG | inactive: -0.132 |
| CAGGTGCC | inactive: -0.177 |
| GACTCATC | inactive: -0.0874 |
| AGCCAAAG | inactive: -0.132 |
| AATTAAGG | inactive: 0.0103 |
| CATTCGAG | inactive: 0.00301 |
| TCTCGGAA | inactive: -0.0231 |
| CGTGCAGA | inactive: -0.114 |
| CCGTGTGA | inactive: 0.0813 |
| GGCTCCGA | inactive: -0.152 |
| TGCGACCA | inactive: -0.069 |
| AAATGTGC | inactive: 0.0201 |
| AATTCAGT | inactive: 0.017 |
| AATACGCT | inactive: 0.0431 |
| AAGAACCA | inactive: 0.0468 |
| CAGGGAAC | inactive: -0.0152 |
| GGTCACTA | inactive: -0.0884 |
| ATTTGAGG | inactive: -0.045 |
| GTTGGTGA | inactive: 0.0582 |
| ACATGAAA | active: 0.314 |

| Sequence | PBM E-score |
| --- | --- |
| CATATGGC | inactive: 0.0643 |
| CAGATGGC | inactive: -0.0362 |
| CGGGACAA | inactive: 0.0647 |
| AATTACAT | active: 0.385 |
| GTAAATGA | inactive: 0.17 |
| AAAGCTCG | inactive: -0.0924 |
| GGTCTACA | inactive: 0.146 |
| ATCGGTCG | inactive: -0.076 |
| AACGCAAC | inactive: 0.0993 |
| ACTAATAT | inactive: 0.215 |
| GATGTAGA | inactive: 0.208 |
| ATTCGGAC | inactive: 0.0206 |
| GGCACCAA | inactive: -0.0973 |
| AAAAAGGC | inactive: -0.0834 |
| ACTGCCCT | inactive: -0.128 |
| ACCCATAC | inactive: 0.083 |
| AAAGTGCA | inactive: 0.0417 |
| AAGGAGGG | inactive: -0.196 |
| CTACCTCC | inactive: -0.0693 |
| ACACTGCG | inactive: -0.0465 |
| CAAACGGA | inactive: -0.137 |
| GTAACTCA | inactive: -0.031 |
| GAGACGCC | inactive: -0.214 |
| AATGGTAT | inactive: 0.153 |

| Sequence | PBM E-score |
| --- | --- |
| AGACACGC | inactive: 0.174 |
| AACTGAGT | inactive: 0.0536 |
| CCTCCTCA | inactive: -0.128 |
| AGCCCAGG | inactive: -0.286 |
| GACTTGTA | active: 0.38 |
| TCCAGACA | inactive: 0.0423 |
| TCGGCCGA | inactive: -0.111 |
| TAGCGAAA | inactive: -0.0311 |
| TAGCTACA | inactive: 0.223 |
| ACAGCTGT | ≥ 0.0661 |
| ATCAAAGC | inactive: -0.0471 |
| ATGTGATG | inactive: 0.19 |
| CCCCACAC | inactive: -0.217 |
| CCCCTTTC | inactive: -0.237 |
| ACATAGAT | inactive: 0.217 |
| CGCGGCGC | inactive: -0.216 |
| ATCGCTGA | inactive: -0.0435 |
| CAAGAGAC | inactive: -0.0204 |
| GGAGAAAC | inactive: -0.0682 |
| TCACCGGA | inactive: -0.032 |
| CCCCAATC | inactive: -0.137 |
| TATCGGCA | inactive: -0.0349 |
| ACAACCGC | inactive: 0.11 |
| TTCAGCAA | inactive: 0.0762 |

| Sequence | PBM E-score |
| --- | --- |
| ACTCGGAA | inactive: 0.0262 |
| GCAACAGC | inactive: -0.0639 |
| CGGGAGTA | inactive: 0.00308 |
| AATTTGAT | inactive: 0.0195 |
| CGTCGCTC | inactive: -0.0977 |
| ATTTCGAC | inactive: 0.047 |
| GGGCCCAC | inactive: -0.259 |
| ACCGCTCA | inactive: -0.0439 |
| GAAACTCA | inactive: 0.00452 |
| GCAATCCA | inactive: 0.00806 |
| AAGAGCGA | inactive: -0.0696 |
| CGAAACAA | inactive: 0.22 |
| ACCCTAGT | ≥ 0.0534 |
| ACCAAATG | inactive: 0.0564 |
| GTCATGAC | inactive: 0.183 |
| ACCATATA | inactive: 0.198 |
| CGACTGCG | inactive: -0.135 |
| GGGGTGCA | inactive: -0.111 |
| CGTGGCCC | inactive: -0.262 |
| AATCTCGA | inactive: -0.00814 |
| CGGATAAG | inactive: -0.0309 |
| CGTACAAC | active: 0.31 |
| ATGCACGC | inactive: 0.0688 |
| ACATCAGT | inactive: 0.221 |

| Sequence | PBM E-score |
| --- | --- |
| CGGTGTTA | inactive: 0.179 |
| ATGCGGGC | inactive: -0.129 |
| CAAGAAAC | inactive: 0.128 |
| CCCCCCGA | inactive: -0.311 |
| ATGGTCCG | inactive: -0.0516 |
| GTCCTGCA | inactive: 0.00365 |
| ACATTTCG | inactive: 0.121 |
| AAGCACGC | inactive: -0.0856 |
| GACCTATC | inactive: -0.0604 |
| GCCCTAGA | inactive: -0.159 |
| CATGAGCG | inactive: -0.0996 |
| AATAAACT | inactive: 0.0911 |
| GAAAGTTA | inactive: 0.0815 |
| CGAGACAG | inactive: 0.0937 |
| ACGTTGTC | ≥ 0.273 |
| ATGAGTAG | inactive: 0.0743 |
| GCCCCGTA | inactive: -0.155 |
| CAACCCAA | inactive: 0.0477 |
| GGCCACTA | inactive: -0.098 |
| TGCCCACA | inactive: -0.0755 |
| GGTTGGAA | inactive: -0.127 |
| ACCAGGCT | inactive: -0.045 |
| AGTCGCAG | inactive: -0.185 |
| TCCTACAA | inactive: 0.207 |

| Sequence | PBM E-score |
| --- | --- |
| ATTCCATA | inactive: 0.0634 |
| CCACCATC | inactive: -0.132 |
| CGCCCGAA | inactive: -0.106 |
| AAACTCAG | inactive: -0.0185 |
| AAATGCTC | inactive: -0.0227 |
| AGCAATTC | inactive: -0.00694 |
| AGGGCGCG | inactive: -0.268 |
| GATGAAAA | inactive: 0.0936 |
| CTTCAACA | inactive: 0.225 |
| CCTCAGTC | inactive: -0.107 |
| AAAAAAAG | inactive: -0.0436 |
| AAAACACA | inactive: 0.216 |
| AAGTCGAC | inactive: 0.0593 |
| AGGAGCCC | inactive: -0.258 |
| CCTCGGCG | inactive: -0.163 |
| AACGGTCG | inactive: -0.0935 |
| TGGGCTAA | inactive: -0.126 |
| AAAATTTC | inactive: -0.0281 |
| ACGTCAAT | inactive: -0.00307 |
| CACCGCGA | inactive: -0.0295 |
| ATGCAGCA | inactive: -0.00107 |
| CAACGGTG | inactive: -0.0109 |
